The supplement of paper PMC10369915
The list shows a part of the results. Cut-off read from the data, not from the text of the source: active = 3.2 or more and inactive = the rest. The signal is at background level for most entries.

B1: ETV6_Y401 (peptide)
chain: RALRHYYKLNI
B2: ETV6_Y401_R399C (peptide)
chain: RALCHYYKLNI
B3: ETV6_Y401_YF (peptide)
chain: RALRHYFKLNI
B4: ETV6_Y402_YF (peptide)
chain: ALRHFYKLNII
B5: EXOSC3_Y143 (peptide)
chain: PASLSYLSFEG
B6: EXPH5_Y782 (peptide)
chain: DTSKMYIPHTD
B7: EZH2_Y641_Y641C (peptide)
chain: EFISECCGEII
B8: EZH2_Y641_Y641N (peptide)
chain: EFISENCGEII
B9: EZH2_Y641_Y641S (peptide)
chain: EFISESCGEII
B10: F10_Y384_P383S (peptide)
chain: MLEVSYVDRNS
B11: F10_Y384_R387H (peptide)
chain: MLEVPYVDHNS
B12: F10_Y407 (peptide)
chain: MFCAGYDTKQE
B13: F11_Y521_D526E (peptide)
chain: VTGWGYRKLRE
B14: F12_Y53_Y53C_YF (peptide)
chain: HFPFQCHRQLF
B15: F12_Y53_YF (peptide)
chain: HFPFQYHRQLF
B16: F12_Y58 (peptide)
chain: YHRQLYHKCTH
B17: F12_Y58_Y53C (peptide)
chain: CHRQLYHKCTH
B18: F12_Y58_YF (peptide)
chain: FHRQLYHKCTH
B19: F13A1_Y161 (peptide)
chain: GKFRMYVAVWT

molecular target: SHP2 C-SH2 domain E139D; assay: enrichment score (SH2-bound / input frequency) (ratio); bacterial display of known human phosphotyrosine sites (pTyr-Var adds point mutants) read by sequencing; higher = stronger binding; tyrosines were phosphorylated by kinases first; conditions: peptide library: pTyr-Var
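Note: displayed peptides selected on beads carrying the immobilized SH2 domain, with library peptides lacking any tyrosine serving as negative controls.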

Binder	enrichment score
B1	active: 4.12
B2	active: 3.25
B3	active: 3.32
B4	active: 5.04
B5	inactive: 0.93
B6	inactive: 0.815
B7	inactive: 0.518
B8	inactive: 0.724
B9	inactive: 0.563
B10	inactive: 0.875
B11	inactive: 0.883
B12	inactive: 1.19
B13	inactive: 0.323
B14	inactive: 1.71
B15	active: 3.26
B16	active: 3.49
B17	active: 3.87
B18	inactive: 2.31
B19	inactive: 0.564

molecular target: SHP2 C-SH2 domain wild-type; assay: as above; conditions: peptide library: pTyr-Var

Binder	enrichment score
B1	active: 3.43
B2	inactive: 2.95
B3	inactive: 2.9
B4	active: 4.95
B5	inactive: 0.875
B6	inactive: 0.682
B7	inactive: 0.673
B8	inactive: 0.631
B9	inactive: 1.19
B10	inactive: 0.752
B11	inactive: 1.2
B12	inactive: 1.35
B13	inactive: 0.327
B14	inactive: 1.99
B15	inactive: 2.42
B16	inactive: 3.09
B17	active: 3.36
B18	inactive: 2.39
B19	inactive: 0.817

molecular target: SHP2 N-SH2 domain L43F; assay: as above; conditions: peptide library: pTyr-Var

Binder	enrichment score
B1	active: 3.64
B2	active: 3.31
B3	inactive: 2.78
B4	active: 4.31
B5	inactive: 1.33
B6	inactive: 0.622
B7	inactive: 0.719
B8	inactive: 0.588
B9	inactive: 0.52
B10	inactive: 0.91
B11	inactive: 0.993
B12	inactive: 1.14
B13	inactive: 0.263
B14	inactive: 2.03
B15	active: 3.27
B16	inactive: 3.05
B17	active: 3.59
B18	inactive: 2.52
B19	inactive: 0.507

molecular target: SHP2 N-SH2 domain T42A; assay: as above; conditions: peptide library: pTyr-Var

Binder	enrichment score
B1	inactive: 2.73
B2	inactive: 2.48
B3	active: 3.22
B4	active: 4.11
B5	inactive: 2.33
B6	inactive: 0.69
B7	inactive: 0.656
B8	inactive: 0.583
B9	inactive: 0.642
B10	inactive: 0.723
B11	inactive: 0.882
B12	inactive: 0.974
B13	inactive: 0.224
B14	inactive: 1.94
B15	inactive: 3.18
B16	inactive: 2.74
B17	active: 3.39
B18	inactive: 1.54
B19	inactive: 0.589

molecular target: SHP2 N-SH2 domain T52S; assay: as above; conditions: peptide library: pTyr-Var

Binder	enrichment score
B1	active: 3.93
B2	inactive: 2.81
B3	inactive: 2.54
B4	active: 4.35
B5	inactive: 1.34
B6	inactive: 0.586
B7	inactive: 0.712
B8	inactive: 0.686
B9	inactive: 0.366
B10	inactive: 0.667
B11	inactive: 0.881
B12	inactive: 1.04
B13	inactive: 0.258
B14	inactive: 2.18
B15	inactive: 3.17
B16	inactive: 2.75
B17	active: 3.75
B18	inactive: 2.59
B19	inactive: 0.573

molecular target: SHP2 N-SH2 domain wild-type; assay: as above; conditions: peptide library: pTyr-Var

Binder	enrichment score
B1	active: 3.66
B2	inactive: 2.85
B3	inactive: 3.07
B4	active: 4.78
B5	inactive: 1.01
B6	inactive: 0.723
B7	inactive: 0.713
B8	inactive: 0.88
B9	inactive: 0.64
B10	inactive: 1.2
B11	inactive: 1.18
B12	inactive: 1.52
B13	inactive: 0.301
B14	inactive: 1.5
B15	inactive: 3.11
B16	inactive: 2.92
B17	active: 3.46
B18	inactive: 2.21
B19	inactive: 0.921
